This is an account of results in PubChem BioAssay AID485344 (National Center for Advancing Translational Sciences (NCATS), 2010).

Hit rate of the full screen: of about 340,000 compounds, about 6,900 (2%) were called active. Cut-off read from the data, not from the text of the source: active = inhibition above about 30%; inactive = below that, where a call was filed. The list shows a part of the results, in another mix than the full data. Entries without a call were filed so in the source.

UniProt P14416, sequence (P14416 whole entry, looked up): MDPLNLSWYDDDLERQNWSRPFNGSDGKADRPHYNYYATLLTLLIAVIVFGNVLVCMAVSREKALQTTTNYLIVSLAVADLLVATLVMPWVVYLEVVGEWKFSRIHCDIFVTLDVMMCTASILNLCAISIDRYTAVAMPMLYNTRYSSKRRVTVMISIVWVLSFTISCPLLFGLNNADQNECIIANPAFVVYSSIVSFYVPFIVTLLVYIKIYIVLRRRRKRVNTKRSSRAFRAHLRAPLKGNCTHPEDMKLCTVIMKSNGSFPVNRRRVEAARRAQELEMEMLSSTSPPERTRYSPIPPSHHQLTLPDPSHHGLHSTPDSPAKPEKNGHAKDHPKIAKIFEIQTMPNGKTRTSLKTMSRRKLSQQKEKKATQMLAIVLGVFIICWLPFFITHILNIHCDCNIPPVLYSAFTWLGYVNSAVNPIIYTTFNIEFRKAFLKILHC

The experiment has as its target D(2) dopamine receptor (Homo sapiens) (UniProt P14416). The experiment in a line: HTS Assay for Allosteric Antagonists of the Human D2 Dopamine Receptor: Primary Screen for Antagonists. Note: 0% is about no effect. As to conditions: HEK293 TREx D2 cells, calcium flux, dopamine EC80; at 10 µM; stronger effect = higher value. The method in brief:
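Inhibition of EC80 dopamine-driven calcium flux, recorded kinetically, defines activity here; cells are a tetracycline-induced HEK293 T-REx line expressing force-coupled D2.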
In general, inhibition refers to the relative decrease from the control value, in per cent. Turning to `CCOC(=O)c1c(C)[nH]c(CCC(=O)Nc2cc(C)cc(C)c2)c1C`, the inhibition came to 7.51%. As to `Cc1ccc(-n2c3c(cc(-c4nc(-c5ccc(Cl)cc5)cs4)c2=O)C(=O)CC(C)(C)C3)cc1`, the inhibition amounted to 6.53%. Next, `COc1cccc(CNC(=O)CN2C(=O)CCn3nc(-c4cn(C)c5ccccc45)cc32)c1OC`: -14.7%; `O=C(Cc1ccc(Cl)cc1)NCC(c1cccs1)S(=O)(=O)c1ccc(Cl)cc1` (centres undefined): -15.8%. Next, `CCN(CC)S(=O)(=O)c1ccc(C)c(NC(=O)CNCc2ccccc2OC)c1`: active: 96.3%. Next, `Cc1cccc(C(=O)Nc2nnc(SCc3cc(=O)n4cccc(C)c4n3)s2)c1`: -4.01%; `COc1ccc(C(=O)N/C(=C\c2cn(S(=O)(=O)N(C)C)c3ccccc23)C(=O)NCCCn2ccnc2)cc1`: -6.45%. Consider `Cc1cccc(NC(=O)c2c(NC(=O)c3ccco3)sc3c2CCC(C(C)(C)C)C3)c1` (centres undefined), for which the inhibition was -17.5%. Turning to `CN(Cc1ccccc1)C(=O)C1CCN(Cc2cc3ccccc3n2Cc2ccccc2)CC1`, the inhibition was -16.8%. Next, `COc1ccccc1NC(=O)c1sc2nc(-c3cc4ccccc4oc3=O)[nH]c(=O)c2c1C`: -12.7%. Next, `O=C(CCN1CCN(c2ccccc2)CC1)N/N=C/c1ccc([N+](=O)[O-])o1`: active: 69.9%. Next, `Cc1cc(C)cc(NC(=O)c2cccc(N3CCCS3(=O)=O)c2)c1`: 2.11%. In the case of `O=S(=O)(Nc1ccccn1)c1ccc(Cl)c2ccccc12`, the inhibition is active: 30.6%. Next, `Cc1ccc(/C=C/c2onc(C)c2S(=O)(=O)N2CCC(C(=O)NCc3ccc(N(C)C)cc3)CC2)cc1`: 12.8%; `CCCCS(=O)CC(O)CSc1nc(-c2ccc(OC)cc2)cc(-c2ccccc2)c1C#N` (centres undefined): 3.54%.

Regarding `Fc1ccccc1N1CCN(c2c3c(nc4nncn24)CCC3)CC1`, the inhibition turned out to be 3.3%. For the molecule `CCC(Sc1nnc(-c2ccc(OC)cc2)c(-c2ccc(OC)cc2)n1)C(=O)Nc1cccc(OC)c1` (centres undefined), the inhibition worked out at 9.44%. As to `Cc1ccc(OCCCC(=O)Nc2sc3c(c2C(N)=O)CCCC3)cc1`, the inhibition turned out to be 1.2%. Next, `Cn1ncc2c(N3CCN(c4ccccc4Cl)CC3)ncnc21`: 17.1%; `CCCCN(C)C(=O)Cn1ncc2c([nH]c3ccc(C)cc32)c1=O`: 6.31%.

In the case of `CCOc1ccccc1NC(=O)CCNS(=O)(=O)c1ccc2c(c1)CCN2C(=O)C1CC1`, the inhibition was -20.3%. Next, `CCOC(=O)C1CCCN(CCSc2ccc(C)cc2)C1` (centres undefined): active: 43.5%; `CCC1CN(C(=O)N2CCC(C(=O)N(C)Cc3ccccc3)CC2)c2ccccc2O1` (centres undefined): -8.11%; `Cc1ccc2nc(CN3CCN(C(=O)Nc4cccc(C)c4C)CC3)oc2c1`: 0.395%.

For the molecule `Cc1ccc(CNC(=O)c2cc(S(=O)(=O)N3CCCCC3)cn2C)cc1`, the inhibition is -1.15%.

On to `COC(=O)c1scc(-c2ccc(C)cc2)c1S(=O)(=O)Nc1c(C)cc(C)cc1C`, for which the inhibition is -0.338%. Next, `COc1ccc(NC(=O)CN2C(=O)CC(c3ccco3)Sc3ccccc32)cc1OC` (centres undefined): -7.05%; `CCS(=O)(=O)c1ncc(N(Cc2cccc(F)c2)Cc2ccco2)c(C(=O)Nc2ccccc2Cl)n1`: 18.7%. For `CCOC(=O)c1cccc(NC(=O)c2cnn(-c3ccccc3)c2-n2cccc2)c1`, the inhibition was 16.4%. Turning to `CC(=O)N1c2ccccc2C(=O)C1N1CCN(c2cc(Cl)ccc2C)CC1` (centres undefined), the inhibition came to 11%. Next, `CC(=O)c1ccc(N2CCN(S(=O)(=O)c3ccc4[nH]c5c(c4c3)CCCCC5)CC2)cc1`: -3.73%.

As for `CCC1CN(C(=O)Nc2ccccc2C(F)(F)F)c2ccccc2S1` (centres undefined), the inhibition is -2.49%.

On to `COc1ccc(-c2cc(C(F)(F)F)n3nc(C(=O)Nc4sc5c(c4C#N)CCC(C)C5)cc3n2)cc1OC` (centres undefined), for which the inhibition was -13.2%. Next, `CCC(C)NC(=O)c1[nH]c2cc(OC)ccc2c1Sc1ccc(C)cc1` (centres undefined): 28%; `CCOC(=O)C1CCN(C(=O)c2cc3ccc4ccc(C)[nH]c4c3n2)CC1`: -0.773%; `Cc1ccc(-n2ncc(C(=O)NCCCN3CCc4ccccc4C3)c2C2CCN(C(=O)OC(C)(C)C)CC2)cc1C`: 11.9%. Next, `COc1ccc2c(c1)c1c(c(=O)n(Cc3ccccc3)c(=O)n1Cc1ccc(C)cc1)n2C`: 8.04%; `CC(CNC(=O)CN1C(=O)COc2ccc(S(=O)(=O)N3CCCCC3)cc21)c1ccccc1` (centres undefined): -1.54%. Next, `O=C(Nc1ccc(Cl)cc1)C1CCN(S(=O)(=O)c2ccc(Br)s2)CC1`: 2.03%; `Cc1ccccc1C(=O)Nc1ccc(C(=O)OCc2cc(=O)n3nc(C4CC4)sc3n2)cc1`: -1.93%. Take `CC1CN(C(=O)Nc2ccc(C(=O)NCCc3ccccc3Cl)cc2)c2ccccc2S1` (centres undefined): the inhibition was 8.43%.

Regarding `Cc1oc2cc3oc(=O)c(CCC(=O)NCCCC(=O)O)c(C)c3cc2c1C`, the inhibition is active: 33.3%. Next, `O=C(Nc1ccc2c(c1)OCO2)C1CCN(Cc2cc3c(cc2O)OCO3)CC1`: active: 35%; `COc1ccc(NC(=O)c2cc(S(=O)(=O)N3CCCCC3)c[nH]2)cc1Cl`: 9.7%; `Cc1ccc(Cl)cc1NC(=O)c1cnn2c(C(F)F)cc(-c3ccccc3)nc12`: 2.03%.

With `Cc1ccc(NC(=O)c2c(C)oc3ccc(O)c(CN4CCCCC4)c23)cc1`, the inhibition came out at 3.17%. Next, `COC(=O)c1c(NC(=O)C(C)Oc2ccc(Cl)cc2Cl)sc2c1CCCC2` (centres undefined): 7.25%. Consider `Cc1cc(C)c(/C=C/c2onc(C)c2S(=O)(=O)N2CCC(C(=O)NCC(C)c3ccccc3)CC2)c(C)c1` (centres undefined), for which the inhibition stood at 9.11%.

Regarding `Cc1cc(NC(=O)CC(C)C)cc(-c2nc3ncccc3o2)c1O`, the inhibition is -6.36%. For the molecule `CC1CCN(C(=O)c2ccccc2NC(=O)c2nsc3ccccc23)CC1`, the inhibition worked out at 15.4%. Next, `CCc1cccc(NC(=O)C2CCCN2S(=O)(=O)c2ccc3c(c2)n(C)c(=O)c(=O)n3C)c1` (centres undefined): 18.6%; `COc1ccc(-n2c(SCC(=O)Nc3cc(C)cc(C)c3)nc3c(oc4ccccc43)c2=O)cc1`: 2.91%. Next, `O=C(COC(=O)/C=C/c1cccc(C(F)(F)F)c1)NCc1ccccc1`: active: 33%; `CCOc1ccc(-c2cc(NC(=O)c3c(F)cccc3F)c(C(=O)OC)s2)cc1`: 0.79%; `O=C(c1cc2c(s1)-c1ccccc1OC2)N1CCc2ccccc2C1`: active: 33.1%. Next, `COc1ccc(CNC(=O)CCc2c(C)nn(-c3ccc(N4CCCC4)nn3)c2C)c(OC)c1`: 3.8%; `COc1ccccc1N1CCN(C(=O)c2nc(-c3ccc(C)cc3)n3c2CCCCC3)CC1`: -10.1%; `COc1ccc(-c2ccc3c(N)c(C(=O)Nc4ccc(C)cc4C)sc3n2)cc1OC`: -8.75%.

For the molecule `CC(C)c1nc2ccc(C(=O)NCc3ccc(F)cc3)cc2o1`, the inhibition was -9.33%.

As for `COc1ccc(S(=O)(=O)NCC(c2ccco2)N2CCN(c3ccccc3F)CC2)cc1OC` (centres undefined), the inhibition is -4.89%. In the case of `Cc1n[nH]c(=O)c2c1nnn2Cc1ccccc1Cl`, the inhibition is active: 57.7%. Next, `COc1ccc(C(=O)c2oc3ccccc3c2NC(=O)COc2cccc(C)c2)cc1`: -24.6%. Next, `CCN(CC)CCNC(=O)c1ccc2c(c1)NC(=O)C(CS(=O)(=O)Cc1ccc(F)cc1Cl)N2` (centres undefined): 6.58%. Consider `CCn1cc(C(=O)NCCCN2CCC(C)CC2)c(=O)c2cc(S(=O)(=O)N(C)C3CCCCC3)ccc21`, for which the inhibition is 15.8%. On to `Cc1nn(C)c2c1c(-c1ccccc1)cc(=O)n2C(C)C(=O)NCCc1ccc(Cl)cc1` (centres undefined), for which the inhibition is -4.2%.

Take `Cc1ccc2[nH]c(CSc3nnc(NC(=O)COc4ccccc4C)s3)cc(=O)c2c1`: the inhibition was 16.5%. Next, `CCCOCc1cc(CN2CCN(c3cccc(Cl)c3)CC2)c(O)c2ncccc12`: 4.81%; `Cc1cccc(C)c1NC(=O)c1c(C)oc2c1C1=NCCN1C=N2`: -22.4%. As for `COc1ccc(Nc2cc(C(=O)NCCCN(C)c3ccccc3)c3ccccc3n2)c(OC)c1`, the inhibition worked out at 3.61%. Next, `Cc1cccc(CCNC(=O)c2ccc3c(c2)nc2n3CCOC2)c1`: -13%; `CCOC(=O)c1ccc(Nc2nc(N)c3cc(OC)c(OC)cc3n2)cc1`: 8.49%. Take `COC(=O)c1ccc(NC(=O)c2cc(S(=O)(=O)N3CCC(C)CC3)cn2C)cc1`: the inhibition is 23%. Next, `Cc1ccc(C(=O)C2CCN(CC(=O)N3CCN(c4ccc(F)cc4)CC3)CC2)cc1`: active: 51.2%; `Cc1oc2ncnc(N3CCCCC3)c2c1C(=O)Nc1cccc(Cl)c1C`: -1.26%; `CCC1CCCCN1S(=O)(=O)c1ccc(NC(=O)c2nc(SC)ncc2Cl)cc1` (centres undefined): -8.34%. On to `N#C/C(=C/c1ccc(N2CCCCC2)o1)C(=O)Nc1ccc(Cl)cc1`, for which the inhibition is active: 61.9%.

For `Cn1c2c(c(=O)n(C)c1=O)C(c1cc(Br)ccc1F)CC(=O)N2` (centres undefined), the inhibition is 4.52%. Next, `Cc1nc2cc(-c3ccccc3)nn2c(C)c1CCC(=O)NCCc1ccccc1`: 8.9%.

For `Cc1ccc(C(=O)N2c3ncnn3C3(CCCCC3)[C@@H]3CCCC[C@@H]32)cc1`, the inhibition stood at 14.5%. Regarding `COc1ccc(OC)c(CNC(=O)CCc2c(C)nc3c(c2C)c(=O)n(C)c(=O)n3C)c1`, the inhibition was -5.3%.

For the molecule `Cc1ccc2oc(=O)c(-c3nc4ccc(C)cc4[nH]3)cc2c1`, the inhibition was 9.5%. Regarding `CCCOc1ccc(CNC(=O)C(C)n2nc(C)n3c(cc4occc43)c2=O)cc1` (centres undefined), the inhibition was 0.866%. Next, `COc1ccc(Cl)cc1NC(=O)CSc1nnc(C)n2c1cc1sccc12`: 12.2%; `COc1ccc(NC(=O)C2CC(=O)N(Cc3ccc(C)cc3)C2)cc1S(=O)(=O)N1CCCCC1` (centres undefined): active: 42.7%; `Cc1c(Cl)cccc1-n1c(SCC(=O)NCc2ccccc2)nc2n[nH]c(C)c2c1=N`: -10.4%. Next, `COc1ccc(NC(=O)CC2C(=O)N(c3ccc(OC)cc3)C(=O)N2C2CCCCC2)cc1` (centres undefined): 5.81%.

As to `Cc1ccc(Nc2cc(=O)[nH]c(=O)[nH]2)cc1C`, the inhibition was -2.34%. Next, `COc1cccc(C(=O)N2CC(=O)Nc3ccc(C)cc3C2c2ccc(F)cc2)c1OC` (centres undefined): -7.29%; `CCOc1cc2sc(N3CCC(C(=O)Nc4ccc(C(C)C)cc4)CC3)nc2cc1Br`: 12.3%; `CCOc1ccc(NC(=O)CN(c2ccccc2OCC)S(=O)(=O)c2ccccc2)cc1`: -1.29%.

`Cc1cc(Cl)ccc1NS(=O)(=O)c1ccc2c(c1)CCN2S(C)(=O)=O`: the inhibition came out at 15.1%. For `Cc1cc(=O)n(Cc2cccc(Br)c2)c2c1c(C)nn2-c1ccccc1`, the inhibition is 2.02%. Next, `Cc1cccc(CNC(=O)Cc2csc3ccccc23)c1`: -11.5%. For `CC1CCCCN1S(=O)(=O)c1ccc(F)c(C(=O)Nc2ccccc2C(F)(F)F)c1` (centres undefined), the inhibition was 18.4%.
